Laboratory results taken from PMC3841200.
No constants are given. Whether binding was seen depends on the method and setting. For some assays here: In cells and extracts the contact can be indirect. Some binding calls cover weakened binding; strength is not graded here. Where a sequence is shown, tags or fusion partners need not be part of it.

T1: CPL1^640–967-cYFP (Arabidopsis thaliana) (UniProt Q5YDB6)
T1 sequence: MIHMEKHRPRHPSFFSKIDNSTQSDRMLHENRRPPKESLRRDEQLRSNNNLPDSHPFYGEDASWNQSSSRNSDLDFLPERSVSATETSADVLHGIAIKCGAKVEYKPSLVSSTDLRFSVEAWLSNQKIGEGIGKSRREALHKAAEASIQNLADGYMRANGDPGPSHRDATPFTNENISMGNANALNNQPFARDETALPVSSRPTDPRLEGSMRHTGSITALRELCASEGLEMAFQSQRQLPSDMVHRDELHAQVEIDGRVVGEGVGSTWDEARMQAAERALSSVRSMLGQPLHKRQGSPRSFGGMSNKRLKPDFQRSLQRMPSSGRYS

T2: GAL4 DNA-binding domain fused with RCF3 (BD:RCF3) (Arabidopsis thaliana) (UniProt Q8W4B1)
T2 sequence: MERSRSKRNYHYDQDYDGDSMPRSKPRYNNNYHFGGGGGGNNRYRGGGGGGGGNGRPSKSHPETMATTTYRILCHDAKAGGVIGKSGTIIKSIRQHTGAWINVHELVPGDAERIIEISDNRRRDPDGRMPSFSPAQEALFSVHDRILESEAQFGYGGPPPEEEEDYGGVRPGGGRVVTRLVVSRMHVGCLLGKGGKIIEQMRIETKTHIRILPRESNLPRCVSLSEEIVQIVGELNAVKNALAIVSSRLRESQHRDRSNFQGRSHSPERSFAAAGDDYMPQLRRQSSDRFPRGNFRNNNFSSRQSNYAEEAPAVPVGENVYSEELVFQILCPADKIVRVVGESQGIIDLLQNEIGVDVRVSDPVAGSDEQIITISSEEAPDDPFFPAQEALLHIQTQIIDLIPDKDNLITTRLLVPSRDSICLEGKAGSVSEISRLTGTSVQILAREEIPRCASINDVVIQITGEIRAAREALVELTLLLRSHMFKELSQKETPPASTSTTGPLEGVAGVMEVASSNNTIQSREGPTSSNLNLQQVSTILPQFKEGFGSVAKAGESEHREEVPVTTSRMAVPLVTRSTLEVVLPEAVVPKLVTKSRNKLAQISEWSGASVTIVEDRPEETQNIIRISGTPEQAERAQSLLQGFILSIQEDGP


How the values were obtained:
[1] = biological target: T1, CPL1^640–967-cYFP (Arabidopsis thaliana); assay: split reporter; BiFC; nYFP and cYFP fusions co-expressed in Arabidopsis mesophyll protoplasts; YFP fluorescence one day after transformation
[2] = biological target: T2, GAL4 DNA-binding domain fused with RCF3 (BD:RCF3) (Arabidopsis thaliana); assay: two-hybrid; yeast PJ69-4A; GAL4-BD (pBUTE^GW) and GAL4-AD (pGAD^GW) fusions, both orientations; growth on SD -ULHA with X-alpha-gal, 28°C, 48 h

Row | Binder | binding [1] | binding [2]
1 | GAL4 activation domain fused with CPL1^699–967 (domain or fragment, UniProt Q5YDB6 699-967) EDASWNQSSSRNSDLDFLPERSVSATETSADVLHGIAIKCGAKVEYKPSLVSSTDLRFSVEAWLSNQKIGEGIGKSRREALHKAAEASIQNLADGYMRANGDPGPSHRDATPFTNENISMGNANALNNQPFARDETALPVSSRPTDPRLEGSMRHTGSITALRELCASEGLEMAFQSQRQLPSDMVHRDELHAQVEIDGRVVGEGVGSTWDEARMQAAERALSSVRSMLGQPLHKRQGSPRSFGGMSNKRLKPDFQRSLQRMPSSGRYS |  | binds
2 | GAL4 activation domain fused with full-length CPL1 (AD:C1F) (enzyme, UniProt Q5YDB6 1-967) MYSNNRVEVFHGDGRLGELEIYPSRELNQQQDDVMKQRKKKQREVMELAKMGIRISHFSQSGERCPPLAILTTISSCGLCFKLEASPSPAQESLSLFYSSCLRDNKTAVMLLGGEELHLVAMYSENIKNDRPCFWAFSVAPGIYDSCLVMLNLRCLGIVFDLDETLVVANTMRSFEDKIDGFQRRINNEMDPQRLAVIVAEMKRYQDDKNLLKQYIESDQVVENGEVIKVQSEIVPALSDNHQPLVRPLIRLQEKNIILTRINPMIRDTSVLVRMRPSWEELRSYLTAKGRKRFEVYVCTMAERDYALEMWRLLDPEGNLINTNDLLARIVCVKSGFKKSLFNVFLDGTCHPKMALVIDDRLKVWDEKDQPRVHVVPAFAPYYSPQAEAAATPVLCVARNVACGVRGGFFRDFDDSLLPRIAEISYENDAEDIPSPPDVSHYLVSEDDTSGLNGNKDPLSFDGMADTEVERRLKEAISASSAVLPAANIDPRIAAPVQFPMASASSVSVPVPVQVVQQAIQPSAMAFPSIPFQQPQQPTSIAKHLVPSEPSLQSSPAREEGEVPESELDPDTRRRLLILQHGQDTRDPAPSEPSFPQRPPVQAPPSHVQSRNGWFPVEEEMDPAQIRRAVSKEYPLDSEMIHMEKHRPRHPSFFSKIDNSTQSDRMLHENRRPPKESLRRDEQLRSNNNLPDSHPFYGEDASWNQSSSRNSDLDFLPERSVSATETSADVLHGIAIKCGAKVEYKPSLVSSTDLRFSVEAWLSNQKIGEGIGKSRREALHKAAEASIQNLADGYMRANGDPGPSHRDATPFTNENISMGNANALNNQPFARDETALPVSSRPTDPRLEGSMRHTGSITALRELCASEGLEMAFQSQRQLPSDMVHRDELHAQVEIDGRVVGEGVGSTWDEARMQAAERALSSVRSMLGQPLHKRQGSPRSFGGMSNKRLKPDFQRSLQRMPSSGRYS |  | binds
3 | GAL4 activation domain fused with CPL2 dsRBM (AD:C2^602–770) (domain or fragment, UniProt Q5YDB5 602-770) PSHLRSEEVAMDDDLKRQNPSRQTTEGGISQNHLVSNGREHHTDGGKSNGGQSHLFVSALQEIGRRCGSKVEFRTVISTNKELQFSVEVLFTGEKIGIGMAKTKKDAHQQAAENALRSLAEKYVAHVAPLARETEKGPENDNGFLWESSEDVSNKGLEEEAPKENISEL |  | no binding

The next lines start with the values.

Row | binding [1] | binding [2] | Binder
4 | no binding |  | MYB75-nYFP (protein, UniProt Q9FE25 1-248) MEGSSKGLRKGAWTTEEDSLLRQCINKYGEGKWHQVPVRAGLNRCRKSCRLRWLNYLKPSIKRGKLSSDEVDLLLRLHRLLGNRWSLIAGRLPGRTANDVKNYWNTHLSKKHEPCCKIKMKKRDITPIPTTPALKNNVYKPRPRSFTVNNDCNHLNAPPKVDVNPPCLGLNINNVCDNSIIYNKDKKKDQLVNNLIDGDNMWLEKFLEESQEVDILVPEATTTEKGDTLAFDVDQLWSLFDGETVKFD
5 | binds |  | RCF3-nYFP (protein, UniProt Q8W4B1 1-652) MERSRSKRNYHYDQDYDGDSMPRSKPRYNNNYHFGGGGGGNNRYRGGGGGGGGNGRPSKSHPETMATTTYRILCHDAKAGGVIGKSGTIIKSIRQHTGAWINVHELVPGDAERIIEISDNRRRDPDGRMPSFSPAQEALFSVHDRILESEAQFGYGGPPPEEEEDYGGVRPGGGRVVTRLVVSRMHVGCLLGKGGKIIEQMRIETKTHIRILPRESNLPRCVSLSEEIVQIVGELNAVKNALAIVSSRLRESQHRDRSNFQGRSHSPERSFAAAGDDYMPQLRRQSSDRFPRGNFRNNNFSSRQSNYAEEAPAVPVGENVYSEELVFQILCPADKIVRVVGESQGIIDLLQNEIGVDVRVSDPVAGSDEQIITISSEEAPDDPFFPAQEALLHIQTQIIDLIPDKDNLITTRLLVPSRDSICLEGKAGSVSEISRLTGTSVQILAREEIPRCASINDVVIQITGEIRAAREALVELTLLLRSHMFKELSQKETPPASTSTTGPLEGVAGVMEVASSNNTIQSREGPTSSNLNLQQVSTILPQFKEGFGSVAKAGESEHREEVPVTTSRMAVPLVTRSTLEVVLPEAVVPKLVTKSRNKLAQISEWSGASVTIVEDRPEETQNIIRISGTPEQAERAQSLLQGFILSIQEDGP
